# From the supplement of paper PMC3334620
# Over roughly 33,000 sequences, “E-score (-0.5 to 0.5)” has its median near -0.011; the highest 2% begin near 0.28. The list shows a part of the results.
# Biological target: T1, Gcr1 (UniProt P07261)
# T1 sequence: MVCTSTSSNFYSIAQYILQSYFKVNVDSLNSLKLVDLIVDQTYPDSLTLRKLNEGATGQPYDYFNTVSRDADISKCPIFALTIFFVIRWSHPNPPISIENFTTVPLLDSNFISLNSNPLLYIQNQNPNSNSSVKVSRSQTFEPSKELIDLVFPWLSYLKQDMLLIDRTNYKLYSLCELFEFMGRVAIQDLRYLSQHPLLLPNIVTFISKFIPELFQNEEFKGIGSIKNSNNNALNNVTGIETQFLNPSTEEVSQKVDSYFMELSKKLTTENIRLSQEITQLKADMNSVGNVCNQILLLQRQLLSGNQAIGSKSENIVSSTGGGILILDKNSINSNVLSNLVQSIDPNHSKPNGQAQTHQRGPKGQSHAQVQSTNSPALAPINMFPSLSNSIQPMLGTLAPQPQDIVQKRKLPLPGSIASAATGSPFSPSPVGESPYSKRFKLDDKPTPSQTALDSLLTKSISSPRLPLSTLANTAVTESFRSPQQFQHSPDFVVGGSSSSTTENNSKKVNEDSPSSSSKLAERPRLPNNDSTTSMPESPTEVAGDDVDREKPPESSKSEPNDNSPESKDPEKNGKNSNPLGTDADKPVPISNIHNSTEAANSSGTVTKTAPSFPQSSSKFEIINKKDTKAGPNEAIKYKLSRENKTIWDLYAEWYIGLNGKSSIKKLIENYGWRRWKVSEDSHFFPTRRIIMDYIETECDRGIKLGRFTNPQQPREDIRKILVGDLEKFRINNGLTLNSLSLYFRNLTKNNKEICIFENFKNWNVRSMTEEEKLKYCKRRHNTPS
# Experiment: PBM E-score (8-mer binding enrichment) (E-score (-0.5 to 0.5)); higher = stronger / more preferred TF binding; most listed sequences are background and not binding sites
# Conditions: protein concentration: 100 nM; construct: GST-full length
# How it was run: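 Detection of bound protein used fluorescent anti-GST, with scans normalised by masliner. The proteins were GST-tagged yeast transcription factors applied at about 100-200 nM to universal all-10-mer Agilent arrays made double-stranded by primer extension. Each ungapped eight-base word, pooled with its reverse complement, was scored with an E-score from the Universal PBM Analysis Suite.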
row,Sequence,PBM E-score
1,CGGCATAC,-0.113
2,AGGCTTAC,-0.17
3,AAAAACGT,-0.0702
4,CGGGGATC,0.184
5,CTGTTCCC,-0.0872
6,AAAATTCT,0.149
7,GAAATCAC,0.0926
8,CAGCTCGA,0.0937
9,AAGTTGTC,0.05
10,AGTCGCCG,0.21
11,CATACTAC,0.0478
12,GGTAACAA,0.135
13,GACGCGTA,-0.0089
14,GCTGATTA,-0.0688
15,AGAAACGG,0.0603
16,AGTACACG,0.00782
17,ACTCCTGA,-0.0261
18,AACCACGT,-0.0375
19,GATAGATC,-0.21
20,GAGAAAGC,-0.0829
21,CCAGTTGA,-0.0652
22,ACCCCGCT,0.0471
23,CACTCGGA,0.214
24,TACCTGCA,0.194
25,ATTCCAAG,0.196

row,Sequence,PBM E-score
1,GGATGCTA,0.44
2,ATGTCCCA,0.022
3,AGACACTA,-0.0252
4,ACCCAAAT,0.233
5,GATAGGGA,0.0349
6,CCGCTACC,0.046
7,AATCATAA,-0.0486
8,TAAGTGCA,-0.198
9,ATGTGGTC,-0.0553
10,TGTAGAAA,0.0905
11,CGGGTCGC,-0.144
12,TAGGTAAA,-0.105
13,TCTCATAA,0.0432
14,CAATTTAG,0.0566
15,AAGTCTAA,-0.0934
16,ACATCTCC,-0.0256
17,ATTCGCGG,0.193
18,CCTTCGCC,-0.218
19,ATGCTCAC,-0.0396
20,CCGGATTC,0.313
21,CTCCTACA,-0.0367
22,CCCCTCAG,-0.0761
23,AACCTGGA,0.0248
24,CATACAAC,0.0943
25,TGCTACAA,0.124

row,Sequence,PBM E-score
1,AGCTTCCC,0.378
2,AACCACTT,0.213
3,CGGTATAG,0.0846
4,CATCCTTC,-0.108
5,TACGCCCA,-0.0827
6,AAACGGTG,0.104
7,AAACAATT,-0.102
8,CTTAATGC,-0.161
9,CTAATTAA,0.0618
10,GGACGGCC,-0.0796
11,CACCGGAG,0.00487
12,AGGGGAGC,0.105
13,ACAAACCC,-0.0318
14,AACAATAT,-0.00193
15,GCCATCCC,-0.173
16,CGTGCTTA,-0.0626
17,ACTATTCT,-0.205
18,ACAGACAC,-0.143
19,GCTCATCA,0.0219
20,CCTACATC,-0.135
21,ACACCGAT,-0.0667
22,AGTTGACA,0.0291
23,ACCGCATA,0.118
24,CCGGCGTC,0.402
25,CTCGCGTC,0.061

row,Sequence,PBM E-score
1,CAATATAC,0.103
2,AGAACGCA,-0.122
3,TCGATCAA,-0.0338
4,TGAGCAAA,-0.229
5,AGAATTGC,-0.0582
6,AGTGCTAC,0.0355
7,CAAGCTGC,0.149
8,CCAAGGAC,-0.0288
9,CAATAACA,-0.0463
10,CTGTCTGA,0.0266
11,ATGTCCGC,-0.076
12,TCTGTCAA,-0.152
13,AGGTACAT,-0.0115
14,CCCTAGGA,-0.137
15,AATCACGA,0.0621
16,CGGTTTCC,0.102
17,CAACAGTC,-0.173
18,CTCGTATC,-0.0392
19,GAATTATC,-0.16
20,CCCCATCC,0.134
21,CACAAAAC,0.0927
22,ATGGTCCA,-0.101
23,ATAAGGTG,0.0714
24,GACATCGC,-0.127
25,TCGGACAA,-0.0183

row,Sequence,PBM E-score
1,TTAGATAA,-0.0353
2,CGTGCATA,-0.188
3,TATACTCA,-0.0337
4,ACGAACCC,0.0176
5,CCGAAGAA,-0.154
6,ATAGGAAA,-0.0777
7,AGTCCTTC,-0.24
8,GTGAGACA,-0.135
9,ATCCTATC,-0.1
10,GCCAAACC,-0.314
11,AGTCAGTA,-0.128
12,GCTCCTCA,-0.186
13,ATAATTTC,0.087
14,CGAGCGGC,-0.0893
15,CAAAGCAA,-0.00273
16,CCCATCCA,0.0935
17,CGATGCCG,0.145
18,ACCCCAAT,0.00286
19,GAGCTAAC,-0.217
20,AGTCAGTC,-0.229
21,AATTCCGG,0.28
22,ACTCAACC,-0.0901
23,GCCGGCCA,0.007
24,GTGTGAAA,-0.00747
25,ATCGAAGG,-0.272

row,Sequence,PBM E-score
1,ACGCTAAG,-0.0875
2,GGACAGGA,0.139
3,ATCACGAT,0.0992
4,GTAGTACA,-0.201
5,CGACCATC,-0.172
6,CATCCACA,0.239
7,AGTAACTC,-0.155
8,GTCCCACA,-0.105
9,AACTTGAG,-0.14
10,ATGTGCTA,-0.0108
11,CGATTTCC,-0.0185
12,CAGGTCAC,-0.047
13,ACGCTTTA,-0.2
14,TAATCTGA,-0.0766
15,GCCGTCGC,-0.338
16,CTATCTGA,0.128
17,CCCACCGA,-0.0806
18,GGCAGATA,-0.0763
19,AATGCTAA,0.206
20,GGCGATTA,-0.198
21,AGCAAAGG,-0.135
22,AGTGTGGG,-0.182
23,CAGGCGAC,-0.0539
24,GGTTAAGA,-0.155
25,ACGCAGAG,-0.141

row,Sequence,PBM E-score
1,AGTAAGAC,-0.0016
2,GTACGAGA,-0.0556
3,TCAGATCA,-0.238
4,ACATGACC,-0.0244
5,GGTGAAAC,-0.0576
6,ATTTCGAA,0.117
7,CTTGTCCC,0.00234
8,CTTTTATC,0.116
9,GAAACTCC,-0.145
10,CAGCCATG,-0.123
11,CGTAACGC,-0.0795
12,CCCGCTTA,0.161
13,GCAGCTCC,0.115
14,AGGTCAAG,-0.046
15,CAAGGGTC,-0.13
16,GGCTCTAA,0.0892
17,AGCAAATA,0.0314
18,AAGCTATA,-0.0637
19,CGAAATAC,0.0793
20,GTTGCGTA,0.157
21,GCTAGCTA,-0.225
22,CGAGGTGC,0.0833
